Out of some 390,000 compounds screened, about 17,000 (4.4%) were called active. The inconclusive results got no clear call from the source; some entries with a clear call stand among them for comparison. Calls follow the shape of the dose curve; as a rule, active = well fitted inhibition curve with a large enough effect; inconclusive = small, poorly fitted or top-dose-only effect; inactive = no such curve, though single readings can be large or run the other way. Where the call is inconclusive, the potency comes from a doubtful curve fit.
Target: Lysine-specific demethylase 4A (Homo sapiens) (UniProt O75164)
Assay: qHTS Assay for Inhibitors of JMJD2A-Tudor Domain; also: nearly all actives have a fitted effect of over 50% in size
Settings: AlphaScreen JMJD2A-Tudor / H3K4me3 peptide binding; activity change, negative = inhibition: at 114 µM (top of the series)
% is scaled to controls: 0 for no effect and ±100 for the full control effect; potency is read from the fitted curve at half-maximal effect; tags tell the direction and shape of the fitted curve.

Sequence of UniProt O75164 (O75164 whole entry, looked up, the tested form may be a part): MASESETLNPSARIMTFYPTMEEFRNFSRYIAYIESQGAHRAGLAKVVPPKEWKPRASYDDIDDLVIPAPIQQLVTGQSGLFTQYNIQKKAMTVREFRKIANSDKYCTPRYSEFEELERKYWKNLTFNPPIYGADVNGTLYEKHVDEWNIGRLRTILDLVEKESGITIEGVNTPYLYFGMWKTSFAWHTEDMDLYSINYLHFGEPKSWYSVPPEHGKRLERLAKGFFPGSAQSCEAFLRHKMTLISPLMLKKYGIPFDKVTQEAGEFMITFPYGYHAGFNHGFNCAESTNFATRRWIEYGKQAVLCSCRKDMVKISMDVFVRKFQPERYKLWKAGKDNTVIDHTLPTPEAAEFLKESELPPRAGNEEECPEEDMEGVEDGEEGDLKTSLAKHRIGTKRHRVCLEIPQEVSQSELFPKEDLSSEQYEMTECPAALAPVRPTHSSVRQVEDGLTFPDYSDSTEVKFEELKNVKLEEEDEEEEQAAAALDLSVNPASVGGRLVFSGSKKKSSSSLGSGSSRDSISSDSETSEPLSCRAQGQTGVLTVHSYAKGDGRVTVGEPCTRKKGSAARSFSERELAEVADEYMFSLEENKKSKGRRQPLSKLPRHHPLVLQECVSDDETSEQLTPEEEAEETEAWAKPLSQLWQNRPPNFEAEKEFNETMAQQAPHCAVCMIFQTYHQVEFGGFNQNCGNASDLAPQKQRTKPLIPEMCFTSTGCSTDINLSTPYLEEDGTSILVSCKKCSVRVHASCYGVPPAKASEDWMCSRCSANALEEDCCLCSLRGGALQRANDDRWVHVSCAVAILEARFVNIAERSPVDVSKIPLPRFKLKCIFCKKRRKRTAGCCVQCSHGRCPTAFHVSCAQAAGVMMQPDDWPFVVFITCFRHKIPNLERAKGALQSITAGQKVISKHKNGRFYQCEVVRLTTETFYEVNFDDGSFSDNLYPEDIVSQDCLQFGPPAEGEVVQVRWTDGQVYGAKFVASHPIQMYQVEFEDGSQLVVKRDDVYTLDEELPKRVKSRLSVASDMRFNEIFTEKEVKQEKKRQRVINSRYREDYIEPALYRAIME

Row | SMILES | Potency | activity change, negative = inhibition
1 | S=C(NNc1ccnc2cc(Cl)ccc12)Nc1ccc(Cl)cc1Cl | inconclusive: 31.6 µM [inhibitor, partial curve] | 
2 | Cc1ccc(-c2nnc(-c3ccc(NC(=O)Cc4cccs4)cc3)o2)cc1 | inconclusive: 63.1 µM [inhibitor, partial curve, poor fit] | 
3 | Cc1ccc([N+](=O)[O-])cc1S(=O)(=O)N1CCn2cccc2C1c1ccccc1F (stereo unspecified) | inconclusive: 31.6 µM [inhibitor, full curve] | 
4 | Cc1ccc2c(c1)c(=O)c1c3n2CCN(C(=O)CCl)C3CC1 (stereo unspecified) | inconclusive: 14.1 µM [inhibitor, partial curve] | 
5 | Clc1ccc(CN2CCCCCCC2)cc1Cl | active: 28.2 µM | 
6 | CCOC(=O)N1CCN(Cc2nc(N)nc(Nc3ccc(C)cc3C)n2)CC1 | inconclusive: 50.1 µM [inhibitor, partial curve] | 
7 | C/C=C/c1ccc(OCCOCCNCc2ccccc2)c(OC)c1 | active: 28.2 µM | 
8 | O=[N+]([O-])c1ccccc1/C=N/n1c(-c2cccnc2)n[nH]c1=S | active: 2.24 µM | 
9 | CCCCCc1c(O)c2ccccc2[nH]c1=O | inactive | 
10 | O=C(COCc1cc(-c2ccc(F)cc2)on1)Nc1cccc(Cl)c1Cl | inactive | 
11 | O=C(Nc1ccccc1C(=O)OCc1cc(=O)n2ccsc2n1)c1ccc(Cl)cc1 | inactive | 
12 | O=C(NCc1cccn1Cc1ccccc1)Nc1ccc(Br)cc1F | inactive | 
13 | C=CCn1c(SCC(=O)c2ccc(O)c(O)c2)nnc1-c1ccccc1OC | inconclusive: 35.5 µM [inhibitor, partial curve] | 
14 | O=c1c(C(c2ccc(Cl)cc2)c2c(O)nc3n(c2=O)CCS3)c(O)nc2n1CCS2 | inactive | 
15 | N#CCCn1cc(C=O)c(-c2cccs2)n1 | inconclusive: 39.8 µM [inhibitor, partial curve] | 
16 | CCCSc1nnc(CSc2nc(C)cc(C)n2)n1C | active: 56.2 µM | 
17 | O=S(=O)(c1ccc(NC2CCCc3ccccc32)nc1)N1CCOCC1 (stereo unspecified) | inconclusive: 79.4 µM [inhibitor, partial curve] | 
18 | CCOc1ccc(N(C)c2ccc(/C=C3/SC(=S)NC3=O)cc2)cc1 | active: 3.55 µM | 
19 | CNS(=O)(=O)c1ccc(N2CCCC2=O)c([N+](=O)[O-])c1 | inconclusive: 56.2 µM [inhibitor, partial curve] | 
20 | CCN1CCN(CC(=O)Nc2cccc(C)c2)C(=O)C1=O | inactive | 
21 | Cc1ccccc1-c1nc(CN2CCC(C(=O)NCCc3ccccc3)CC2)c(C)o1 | inconclusive: 79.4 µM [inhibitor, partial curve] | 
22 | O=C(CCCn1c(=O)c2ccccc2n(CC(=O)Nc2cccc(C(F)(F)F)c2)c1=O)NCc1ccc2c(c1)OCO2 | inactive | 
23 | Cc1ccc2nsnc2c1S(=O)(=O)N1CCN(CCc2ccccc2)CC1 | inconclusive: 89.1 µM [inhibitor, partial curve] | 

Row | SMILES | Potency | activity change, negative = inhibition
24 | Cc1cc(C)n2nc(C(=O)OCC(=O)c3c[nH]c4ccccc34)nc2n1 | inconclusive: 50.1 µM [inhibitor, partial curve] | 
25 | CC1=NN(c2ccc(C)c(C)c2)C(=O)C1C(c1cccc(O)c1)C1C(=O)N(c2ccc(C)c(C)c2)N=C1C (stereo unspecified) | inconclusive: 50.1 µM [inhibitor, partial curve] | 
26 | O=[N+]([O-])c1cccnc1N1CCN(Cc2ccc3c(c2)OCO3)CC1 | inconclusive: 22.4 µM [inhibitor, full curve] | 
27 | S=C(c1ccc(N2CCCC2)c(Br)c1)N1CCCCC1 | inconclusive: 22.4 µM [inhibitor, partial curve] | 
28 | COC(=O)c1cc(C(=O)OCC(=O)NC(=O)NCc2ccccc2)cc([N+](=O)[O-])c1 | inconclusive: 35.5 µM [inhibitor, partial curve] | 
29 | CCCNC(=O)c1nc(C)n(-c2ccc([N+](=O)[O-])cc2)n1 | inconclusive: 39.8 µM [inhibitor, full curve] | 
30 | CCN(CC)S(=O)(=O)c1ccc(N2CCCC2)c(NC(=O)c2ccc([N+](=O)[O-])o2)c1 | inconclusive: 50.1 µM [inhibitor, partial curve, poor fit] | 
31 | CCOC(=O)c1[nH]c2cc(OC)c(OC)cc2c1NC(=O)CN(C)C1CCCCC1 | inconclusive: 31.6 µM [inhibitor, partial curve] | 
32 | COc1ccc(CN2CCN(Cc3ccccc3C(F)(F)F)CC2)c(OC)c1 | active: 1.58 µM | 
33 | Cc1nn(C)cc1CN(C)Cc1ccc(OCC(O)CN2CCCCC2)cc1 (stereo unspecified) |  | inactive: 0.735% [at 11.4 µM]
34 | CCOc1ccc(N(CC)S(=O)(=O)N2CCCC(C(=O)Nc3cc(Cl)ccc3C)C2)cc1 (stereo unspecified) | inactive | 
35 | COc1ccc(OC)c(-c2nnc3n2N=C(c2ccc(OC)c(OCC4CC4)c2)CS3)c1 | inconclusive: 56.2 µM [inhibitor, partial curve] | 
36 | Cc1ccc(Cl)cc1N1CCN(C(=O)C2CCN(S(=O)(=O)c3cccc4nonc34)CC2)CC1 | inactive | 
37 | Cc1ccc(C(=O)C=CNNC(=O)c2ccccc2)cc1 | inconclusive: 56.2 µM [inhibitor, partial curve, poor fit] | 
38 | C=CCSc1nnc2c(n1)-c1cccc3cccc-2c13 | inconclusive: 39.8 µM [inhibitor, partial curve] | 
39 | CC(=O)c1c(C)oc2c(Br)cc(NS(=O)(=O)c3ccc(Br)cc3)cc12 | inactive | 
40 | C=CC[C@@H](CC(=O)NCCO)C(=O)N[C@H](C)COC(=O)[C@@H](CC=C)Cc1ccc(F)cc1 | inactive | 
41 | Nc1ccc(-c2nc3ccc(N)cc3o2)cc1 | inactive | 
42 | Cc1cc(C)nc(SCNC(=O)c2ccc(Cl)cc2)n1 | inconclusive: 44.7 µM [inhibitor, partial curve, poor fit] | 
43 | O=C(NCc1cccnc1)c1ccccn1 | inconclusive: 17.8 µM [inhibitor, full curve, poor fit] | 
44 | COCCN(C(=O)COC(=O)c1cccs1)c1c(N)n(Cc2ccccc2)c(=O)[nH]c1=O | inactive | 
45 | COc1ccc2c(c1)c(C(=O)N/N=C/c1ccc(Br)cc1)c(C)n2C | inactive | 
46 | O=C1CCC(C(=O)OCC(=O)N2N=C3/C(=C\c4ccccc4)CCCC3C2c2ccccc2)N1 (stereo unspecified) | inconclusive: 22.4 µM [inhibitor, partial curve, poor fit] | 

Source: PubChem BioAssay AID504339 (National Center for Advancing Translational Sciences (NCATS), 2011)
